Out of some 110,000 compounds screened, about 230 (0.21%) showed an effect of 50% or more. Some of the results follow.
biological target: DPAP1 (Plasmodium falciparum, UniProt Q8IIJ9); assay: primary screen, percent inhibition; read by cleavage of a fluorogenic dipeptide substrate; higher = more effect of the substance; set-up: species or system P. falciparum D10 trophozoite lysates; single well
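Note: 30 min substrate incubation versus DMSO and 10 µM JCP410 controls.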

Sequence of DPAP1 (Q8IIJ9 whole entry, looked up): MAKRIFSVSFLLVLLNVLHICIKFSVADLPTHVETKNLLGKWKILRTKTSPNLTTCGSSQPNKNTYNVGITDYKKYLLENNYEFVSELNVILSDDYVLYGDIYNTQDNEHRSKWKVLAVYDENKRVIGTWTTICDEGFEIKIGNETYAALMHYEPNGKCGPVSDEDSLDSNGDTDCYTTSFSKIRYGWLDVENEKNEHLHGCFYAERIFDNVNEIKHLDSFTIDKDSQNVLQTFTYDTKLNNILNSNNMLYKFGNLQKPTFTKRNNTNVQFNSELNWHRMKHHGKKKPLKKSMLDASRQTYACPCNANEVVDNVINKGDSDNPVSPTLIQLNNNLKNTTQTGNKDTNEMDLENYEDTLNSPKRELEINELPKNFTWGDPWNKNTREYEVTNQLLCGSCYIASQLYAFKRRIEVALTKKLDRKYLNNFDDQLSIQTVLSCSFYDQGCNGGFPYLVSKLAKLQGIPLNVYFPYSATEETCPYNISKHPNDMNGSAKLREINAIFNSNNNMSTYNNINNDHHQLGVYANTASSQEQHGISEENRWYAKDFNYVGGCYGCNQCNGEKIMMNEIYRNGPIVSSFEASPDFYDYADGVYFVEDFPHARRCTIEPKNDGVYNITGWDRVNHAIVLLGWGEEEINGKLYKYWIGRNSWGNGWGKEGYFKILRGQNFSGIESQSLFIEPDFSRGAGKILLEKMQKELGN

Structure (SMILES) | % Inhibition @ 10 uM
N#CC1=C(SCc2ccccc2)NC(=O)CC1c1ccc(Cl)cc1 (stereo not shown) | -6.18%
CCC(=O)Nc1nc(-c2ccc(Cl)cc2)nc(C)c1C(C)=O | 1.62%
O=C(C1=C(O)C(=O)N(Cc2cccnc2)C1c1ccccc1F)c1ccc(F)cc1 (stereo not shown) | -5.46%
CCCc1nc2cc3sc(CCC)nc3cc2s1 | 0.628%
Cc1ccc(CNC(=O)CCCn2c(=O)c3sccc3n(Cc3ccc(Cl)cc3)c2=O)cc1 | -1.84%
COc1ccc(-c2cc3nc(C)c(CCC(=O)N4CCc5ccccc5C4)c(C)n3n2)c(OC)c1 | -2.25%
CC(C)C[C@@H](C(=O)NCC#N)N(C)C(=O)OCc1cccc(OC(F)(F)F)c1 | 0.174%
COc1ccc(CN2CCN(Cc3cccnc3)CC2)cc1 | -8.59%
CC12CC(c3ccccc3O1)C(C(=O)N1CCOCC1)C(=O)N2 (stereo not shown) | 1.83%
Cc1c(C(=O)NCCNC2CCCCC2)c(-c2ccccc2)nn1-c1ccccc1 | -2.77%
Cc1cc(C)nc(/N=C(\N)Nc2ccc(C)c(Cl)c2)n1 | -5.79%
COc1ccc(Cn2ccc3nc4ccn(Cc5ccc(OC)cc5)c(=O)c4cc3c2=O)cc1 | 2.39%
COc1ccc(N2CCN(C3CC(=O)N(c4ccccc4Cl)C3=O)CC2)cc1 (stereo not shown) | 0.755%
O=C(c1cc2ccccc2oc1=O)N1CCOCC1 | 1.8%
CCN(CC)C(=O)c1nnc(O)c2ccccc12 | 1.04%
Cc1ccc(/C=C2\CCc3ccccc3C2=O)o1 | 9.56%
Cc1ccc(C)c(N(CC(=O)N2CCc3ccccc3C2)S(C)(=O)=O)c1 | 4.56%
CCOC(=O)C(/C=N/c1sc2c(c1C(=O)OC)CCCC2)=C(\O)OCC | 7.61%
Cc1ccc2cnn(CC(=O)NCc3ccccc3F)c2c1 | 2.25%
O=C(Nc1nccs1)C(Sc1ccccc1)c1ccccc1 (stereo not shown) | -0.872%
COc1ccc(OCCOc2ccc(/C=C3\C(=N)N4C(C)=CSC4=NC3=O)cc2Cl)cc1 | -7.09%
CCCNC(=O)c1ccc2snnc2c1 | -1.74%
CCOc1cc(/C=C2/SC(=O)N(C(C)C)C2=O)cc(Br)c1OC | 1.28%
COc1ccc(-c2ccc(OC)c(OC)c2OC)c(OC)c1OC | 2.32%
O=C1CCC(=O)N1c1ccc(Sc2ccc([N+](=O)[O-])cc2)cc1 | -6.09%
CCCCOc1ccc(/C=C2\Oc3ccc(C(=O)OC)cc3C2=O)cc1OC | 0.291%

Structure (SMILES) | % Inhibition @ 10 uM
CC12C=CC(O1)C1C(=O)N(c3ccccc3C#N)C(=O)C12 (stereo not shown) | 2.67%
CC(C)(C)CC(=O)Nc1sc2c(c1C#N)CCC2 | -0.968%
Cc1ccc(SCC(=O)Nc2ccccc2N2CCOCC2)cc1 | -6.43%
COc1ccc(C(=O)Nc2nnc(C(C)C)s2)c(OC)c1 | 3.54%
CCc1ccccc1NC(=O)C1CC(C)=C(C)CC1C(=O)O (stereo not shown) | 2.3%
COc1ccc(OC)c(NC(=O)c2ccccc2Br)c1 | 1.38%
Cc1cccc(N2CCN(S(=O)(=O)c3ccc(F)cc3)CC2)c1C | 3.53%
COc1ccc(-c2csc(-c3cc4cc(Br)cc(Br)c4oc3=O)n2)cc1 | -2.42%
CC(C)c1ccc(OCC(=O)N2CCCC2)c(Br)c1 | 3.01%
CC(C)CC(C(=O)NCC#N)c1cnc(-c2ccc(Br)cc2)s1 (stereo not shown) | -1.41%
CCC12CN3CC(C)(CN(C1)C3c1cn(Cc3ccccc3)c3ccccc13)C2=O (stereo not shown) | 0.401%
O=S(=O)(c1ccc(Cl)cc1)N1CCOCC1 | -3.71%
CCCCCCNC(=O)c1ccc(OCC)cc1 | 5.53%
CC1CCN(S(=O)(=O)c2ccccc2[N+](=O)[O-])CC1 | -2.12%
COc1ccc(C(=O)Nc2ccc(Cl)cc2C(=O)N2CCCCC2C)cc1 (stereo not shown) | -0.984%
CCOc1ccc2nc(N3CCCC(C(=O)N4CCN(c5ccccn5)CC4)C3)sc2c1 (stereo not shown) | 0.137%
COc1ccc(C(=O)Nc2ccc(C(=O)NCC3CCCO3)cc2)cc1OC (stereo not shown) | 1.19%
CCOC(=O)c1ccc(-c2sc3nc(N4CCOCC4)c4c(c3c2N)CC(C)(C)OC4)o1 | -1.06%
CCOCCCNC(=O)CN1C(=O)c2ccccc2S1(=O)=O | 2.42%
CC(C)C(=O)NC(c1ccco1)c1ccc2cccnc2c1O (stereo not shown) | 3.04%
COc1ccc(N(CC(=O)NCc2ccccc2Cl)S(C)(=O)=O)cc1Cl | 8.13%
Cc1nc2c(C)c(-c3ccccc3)nn2c(O)c1C | -3.85%
CCCCCc1ccc(C(=O)Cc2ccc(OCC)cc2)cc1 | 4.26%
CCOc1ccc(NC(=O)C2=C(C)NC(=O)NC2c2ccc(F)cc2)cc1 (stereo not shown) | -2.18%
CCCCN(C)C(=O)c1c(C)nn(-c2ccc(F)cc2)c1-n1cccc1 | 0.776%
Cc1cc(NCCCN(C)C)nc2cc(Cl)ccc12 | -3.74%

From publication PMC6919601, “Identification of Plasmodium dipeptidyl aminopeptidase allosteric inhibitors by high throughput screening” (PLoS ONE, 2019)
